# Reference: the supplement of paper PMC8728848
# The other results are listed elsewhere or left out.
# Assays:
# Experiment in all cases: glycan array binding signal (z-score within array); higher = stronger binding
# Conditions in all cases: glycan notation: IUPAC condensed, linker removed
# [1] = biological target: Gal(b1-4)GlcNAc(b1-3)Gal(b1-3)GlcNAc
# In short: (§1)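 The binding signal is a Z-score computed within each array. Data were drawn from 3228 arrays in the Consortium for Functional Glycomics database, restricted to those with a known protein sequence. Scores were averaged over arrays of the same protein sequence at different concentrations or buffers, and over linkers, and negative values can be taken as non-binding.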
# [2] = biological target: Gal(b1-4)GlcNAc(b1-3)Gal(b1-4)Glc
# In short: as §1
# [3] = biological target: Gal(b1-4)GlcNAc(b1-3)Gal(b1-4)GlcNAc
# In short: as §1
# [4] = biological target: Gal(b1-4)GlcNAc(b1-3)Gal(b1-4)GlcNAc(b1-2)Man(a1-3)[Gal(b1-4)GlcNAc(b1-3)Gal(b1-4)GlcNAc(b1-2)Man(a1-6)]Man(b1-4)GlcNAc(b1-4)GlcNAc
# In short: as §1
# [5] = biological target: Gal(b1-4)GlcNAc(b1-3)Gal(b1-4)GlcNAc(b1-2)Man(a1-3)[Gal(b1-4)GlcNAc(b1-3)Gal(b1-4)GlcNAc(b1-2)Man(a1-6)]Man(b1-4)GlcNAc(b1-4)[Fuc(a1-6)]GlcNAc
# In short: as §1
# [6] = biological target: Gal(b1-4)GlcNAc(b1-3)Gal(b1-4)GlcNAc(b1-2)[Gal(b1-4)GlcNAc(b1-3)Gal(b1-4)GlcNAc(b1-6)]Man(a1-6)[Gal(b1-4)GlcNAc(b1-3)Gal(b1-4)GlcNAc(b1-2)Man(a1-3)]Man(b1-4)GlcNAc(b1-4)GlcNAc
# In short: as §1
# [7] = biological target: Gal(b1-4)GlcNAc(b1-3)Gal(b1-4)GlcNAc(b1-2)[Gal(b1-4)GlcNAc(b1-3)Gal(b1-4)GlcNAc(b1-6)]Man(a1-6)[Gal(b1-4)GlcNAc(b1-3)Gal(b1-4)GlcNAc(b1-2)Man(a1-3)]Man(b1-4)GlcNAc(b1-4)[Fuc(a1-6)]GlcNAc
# In short: as §1
# [8] = biological target: Gal(b1-4)GlcNAc(b1-3)Gal(b1-4)GlcNAc(b1-3)Gal(b1-4)GlcNAc
# In short: as §1
# [9] = biological target: Gal(b1-4)GlcNAc(b1-3)Gal(b1-4)GlcNAc(b1-3)Gal(b1-4)GlcNAc(b1-2)Man(a1-3)[Gal(b1-4)GlcNAc(b1-3)Gal(b1-4)GlcNAc(b1-3)Gal(b1-4)GlcNAc(b1-2)Man(a1-6)]Man(b1-4)GlcNAc(b1-4)GlcNAc
# In short: as §1
# [10] = biological target: Gal(b1-4)GlcNAc(b1-3)Gal(b1-4)GlcNAc(b1-3)Gal(b1-4)GlcNAc(b1-2)Man(a1-3)[Gal(b1-4)GlcNAc(b1-3)Gal(b1-4)GlcNAc(b1-3)Gal(b1-4)GlcNAc(b1-2)Man(a1-6)]Man(b1-4)GlcNAc(b1-4)[Fuc(a1-6)]GlcNAc
# In short: as §1
# [11] = biological target: Gal(b1-4)GlcNAc(b1-3)Gal(b1-4)GlcNAc(b1-3)Gal(b1-4)GlcNAc(b1-2)[Gal(b1-4)GlcNAc(b1-3)Gal(b1-4)GlcNAc(b1-3)Gal(b1-4)GlcNAc(b1-6)]Man(a1-6)[Gal(b1-4)GlcNAc(b1-3)Gal(b1-4)GlcNAc(b1-3)Gal(b1-4)GlcNAc(b1-2)Man(a1-3)]Man(b1-4)GlcNAc(b1-4)[Fuc(a1-6)]GlcNAc
# In short: as §1
# [12] = biological target: Gal(b1-4)GlcNAc(b1-3)Gal(b1-4)GlcNAc(b1-3)Gal(b1-4)GlcNAc(b1-3)Gal(b1-4)GlcNAc(b1-2)Man(a1-3)[Gal(b1-4)GlcNAc(b1-3)Gal(b1-4)GlcNAc(b1-3)Gal(b1-4)GlcNAc(b1-3)Gal(b1-4)GlcNAc(b1-2)Man(a1-6)]Man(b1-4)GlcNAc(b1-4)GlcNAc
# In short: as §1
# [13] = biological target: Gal(b1-4)GlcNAc(b1-3)Gal(b1-4)GlcNAc(b1-3)Gal(b1-4)GlcNAc(b1-3)Gal(b1-4)GlcNAc(b1-2)Man(a1-3)[Gal(b1-4)GlcNAc(b1-3)Gal(b1-4)GlcNAc(b1-3)Gal(b1-4)GlcNAc(b1-3)Gal(b1-4)GlcNAc(b1-2)Man(a1-6)]Man(b1-4)GlcNAc(b1-4)[Fuc(a1-6)]GlcNAc
# In short: as §1
# [14] = biological target: Gal(b1-4)GlcNAc(b1-3)Gal(b1-4)GlcNAc(b1-3)Gal(b1-4)GlcNAc(b1-3)Gal(b1-4)GlcNAc(b1-2)[Gal(b1-4)GlcNAc(b1-3)Gal(b1-4)GlcNAc(b1-3)Gal(b1-4)GlcNAc(b1-3)Gal(b1-4)GlcNAc(b1-6)]Man(a1-6)[Gal(b1-4)GlcNAc(b1-3)Gal(b1-4)GlcNAc(b1-3)Gal(b1-4)GlcNAc(b1-3)Gal(b1-4)GlcNAc(b1-2)Man(a1-3)]Man(b1-4)GlcNAc(b1-4)[Fuc(a1-6)]GlcNAc
# In short: as §1
# [15] = biological target: Gal(b1-4)GlcNAc(b1-3)Gal(b1-4)GlcNAc(b1-3)Gal(b1-4)GlcNAc(b1-3)Gal(b1-4)GlcNAc(b1-3)Gal(b1-4)GlcNAc(b1-2)Man(a1-3)[Gal(b1-4)GlcNAc(b1-3)Gal(b1-4)GlcNAc(b1-3)Gal(b1-4)GlcNAc(b1-3)Gal(b1-4)GlcNAc(b1-3)Gal(b1-4)GlcNAc(b1-2)Man(a1-6)]Man(b1-4)GlcNAc(b1-4)GlcNAc
# In short: as §1
# [16] = biological target: Gal(b1-4)GlcNAc(b1-3)Gal(b1-4)GlcNAc(b1-3)Gal(b1-4)GlcNAc(b1-3)Gal(b1-4)GlcNAc(b1-3)Gal(b1-4)GlcNAc(b1-2)Man(a1-3)[Gal(b1-4)GlcNAc(b1-3)Gal(b1-4)GlcNAc(b1-3)Gal(b1-4)GlcNAc(b1-3)Gal(b1-4)GlcNAc(b1-3)Gal(b1-4)GlcNAc(b1-2)Man(a1-6)]Man(b1-4)GlcNAc(b1-4)[Fuc(a1-6)]GlcNAc
# In short: as §1
# [17] = biological target: Gal(b1-4)GlcNAc(b1-3)Gal(b1-4)GlcNAc(b1-3)Gal(b1-4)GlcNAc(b1-3)Gal(b1-4)GlcNAc(b1-3)Gal(b1-4)GlcNAc(b1-2)[Gal(b1-4)GlcNAc(b1-3)Gal(b1-4)GlcNAc(b1-3)Gal(b1-4)GlcNAc(b1-3)Gal(b1-4)GlcNAc(b1-3)Gal(b1-4)GlcNAc(b1-6)]Man(a1-6)[Gal(b1-4)GlcNAc(b1-3)Gal(b1-4)GlcNAc(b1-3)Gal(b1-4)GlcNAc(b1-3)Gal(b1-4)GlcNAc(b1-3)Gal(b1-4)GlcNAc(b1-2)Man(a1-3)]Man(b1-4)GlcNAc(b1-4)[Fuc(a1-6)]GlcNAc
# In short: as §1
# [18] = biological target: Gal(b1-4)GlcNAc(b1-3)Gal(b1-4)GlcNAc(b1-3)Gal(b1-4)GlcNAc(b1-3)Gal(b1-4)GlcNAc(b1-3)Gal(b1-4)GlcNAc(b1-3)Gal(b1-4)GlcNAc(b1-2)Man(a1-3)[Gal(b1-4)GlcNAc(b1-3)Gal(b1-4)GlcNAc(b1-3)Gal(b1-4)GlcNAc(b1-3)Gal(b1-4)GlcNAc(b1-3)Gal(b1-4)GlcNAc(b1-3)Gal(b1-4)GlcNAc(b1-2)Man(a1-6)]Man(b1-4)GlcNAc(b1-4)GlcNAc
# In short: as §1
# [19] = biological target: Gal(b1-4)GlcNAc(b1-3)Gal(b1-4)GlcNAc(b1-3)GalNAc
# In short: as §1
binder,measurement,setting,value
XL-35 (Xenopus laevis) (protein) MLVHILLLLVTGGLSQSCDPVVIVASKNMVKQLDCDKFRNCKEIKDSNEEAQDGIYTLTSPDGISYQTFCDMTTNGGGWTLVASVHENNMAGKCTIGDRWSSQQGNRADYPEGDGNWANYNTFGSAGGATSDDYKNPGYYDIEAYNLGVWHVPNKTPLSVWRNSSLQRYRTTDGILFKHGGNLFSLYRIYPVKYGIGSCSKDSGPTVPVVYDLGSANLTASFYSPGFRSQFTPGYIQFRPINTEKAALALCPGMKMESCNVEHVCIGGGGYFPEADPRQCGDFAAYDFNGYGTKKFNSAGIEITEAAVLLFYL,glycan array binding signal (z-score),[1],-0.158
same,glycan array binding signal (z-score),[2],0.126
same,glycan array binding signal (z-score),[3],0.116
same,glycan array binding signal (z-score),[4],0.242
same,glycan array binding signal (z-score),[5],0.239
same,glycan array binding signal (z-score),[6],0.164
same,glycan array binding signal (z-score),[7],0.295
same,glycan array binding signal (z-score),[8],-0.269
same,glycan array binding signal (z-score),[9],0.052
same,glycan array binding signal (z-score),[10],0.113
same,glycan array binding signal (z-score),[11],-0.056
same,glycan array binding signal (z-score),[12],0.163
same,glycan array binding signal (z-score),[13],0.331
same,glycan array binding signal (z-score),[14],-0.13
same,glycan array binding signal (z-score),[15],-0.412
same,glycan array binding signal (z-score),[16],0.144
same,glycan array binding signal (z-score),[17],0.478
same,glycan array binding signal (z-score),[18],0.297
same,glycan array binding signal (z-score),[19],-0.165
